Test results as given in PubChem BioAssay AID686978 (National Center for Advancing Translational Sciences (NCATS), 2013).
Hit rate of the full screen: of about 420,000 compounds, about 64,000 (15%) were called active. The shares of active, inactive and inconclusive entries below differ from those in the screen. Calls come from the whole dose curve; as a rule, active = well fitted inhibition curve with a large enough effect; inconclusive = small, poorly fitted or top-dose-only effect; inactive = flat fitted curve, though single readings scatter. Potencies of inconclusive entries are left out as doubtful fits.
% is set by controls: 0 for no effect and ±100 for the full control effect; potency is the fitted concentration of half-maximal effect; tags give direction and shape of the fitted curve.

Experiment: qHTS for Inhibitors of human tyrosyl-DNA phosphodiesterase 1 (TDP1): qHTS in cells in absence of CPT; note: nearly all actives have a fitted effect of over 55% in size
Settings: DT40 Tdp1-/- hTDP1 cells, no CPT, ATP luminescence, 48 h; activity change, negative = growth inhibition: at 46.2 µM (top of the series) unless noted
Summary of the method: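 Readout: luminescence from CellTiter-Glo after 30 min in the dark at RT. Cells: DT40 Tdp1-/- with stable hTDP1, 400/well. Exposure: compounds alone, ≥48 hr, 37 °C.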
In the case of Cc1cc2cc(CNC(=O)c3cccs3)ccc2n1C, the Potency is reported as inconclusive [inhibitor, single point].
With COc1ccc(CC(=O)NCCS(=O)(=O)N2CCN(c3ccccc3)CC2)cc1OC the Potency was inconclusive [inhibitor, partial curve].
For Cc1ccc(C(=O)N/C(=C/c2ccco2)C(=O)OCN2C(=O)c3ccccc3C2=O)cc1, the “activity change, negative = growth inhibition” value was inactive: -15.6%.
For CCOc1ccc(CCNC(=O)Cn2nc(C)n3c(cc4occc43)c2=O)cc1OCC, the “activity change, negative = growth inhibition” value was inactive: -28.1%.
For COc1ccc(CC(=O)n2nc(-c3cccnc3)nc2N)cc1, the “activity change, negative = growth inhibition” value was inactive: 1.94%.
For CCc1nc2ccc(C(=O)NCCc3ccccn3)cn2c1N(C)Cc1ccc(N(C)C)cc1, the Potency was inconclusive [inhibitor, single point].
In the case of COc1ccc(N2CCN(C(=O)c3cccc(F)c3)CC2)c([N+](=O)[O-])c1, the Potency is reported as inconclusive [inhibitor, single point].
With CCOC(=O)C1CCCN(Cc2nc(C3CC3)no2)C1 (stereo unspecified) the “activity change, negative = growth inhibition” value was inactive: -3.42%.
In the case of CCOc1ccc(S(=O)(=O)N2CCOCC2)cc1NC(=O)CCN1C(=O)NC2(CCCC2)C1=O, the “activity change, negative = growth inhibition” value is reported as inactive: 5.31%.
For COc1ccc(CCNC(=O)Cn2c(=O)n(-c3ccc(F)cc3)c(=O)c3sccc32)cc1OC, the activity change, negative = growth inhibition was inconclusive: -34.4% [inhibitor].
For C=CCn1c(C)cc(C(=O)CSc2nnc(-c3cccc(S(=O)(=O)N(CC)CC)c3)o2)c1C, the Potency was inconclusive [inhibitor, single point].
With COc1ccc(NS(=O)(=O)c2ccc(OC)c3ccccc23)cn1 the Potency was inconclusive [inhibitor, single point].
In the case of Nn1c(SCc2ccc([N+](=O)[O-])cc2)nc2ccccc2c1=O, the activity change, negative = growth inhibition is reported as inconclusive: -32.2% [inhibitor].
With Cc1sc2ncnc(SCC(=O)Nc3cccc(S(N)(=O)=O)c3)c2c1C the Potency was inconclusive [inhibitor, single point].
In the case of CC(C)COc1ccc(CNC(=S)NCc2ccccc2)cc1, the Potency is reported as inconclusive [inhibitor, single point].
With O=C(Nc1ccccc1Oc1ccccc1)c1cccc([N+](=O)[O-])c1 the Potency was inconclusive [inhibitor, partial curve].
In the case of O=C(NCCCn1cccn1)C1CCC(=O)N(Cc2ccccc2F)C1 (stereo unspecified), the “activity change, negative = growth inhibition” value is reported as inactive: 20.7%.
For O=C(NC1CCCCCC1)c1cc2n(n1)C(C(F)(F)F)CC(c1ccco1)N2 (stereo unspecified), the Potency was inconclusive [inhibitor, single point].
In the case of O=C(c1cccn2c(=O)c3cc(Br)ccc3nc12)N1CCN(c2ccccn2)CC1, the activity change, negative = growth inhibition is reported as inconclusive: -35.5% [inhibitor].
For CC1(Oc2ccccc2-c2ccn[nH]2)CCN(Cc2ccc(OC(F)(F)F)cc2)C1 (stereo unspecified), the Potency was inconclusive [inhibitor, single point].
In the case of CC(=O)NC(=S)NNC(=O)c1ccc(Br)cc1, the Potency is reported as active: 5.8 µM.
In the case of CCOC(=O)C1=C[C@@H](C2CCCCC2)N(S(=O)(=O)c2ccc([N+](=O)[O-])cc2)[C@H]1c1ccccc1, the Potency is reported as inconclusive [inhibitor, single point].
With COc1ccc(Oc2ncc3nc(C)c(=O)n(C4CC4)c3n2)cc1 the Potency was inconclusive [inhibitor, single point].
With CCN(CC(=O)Nc1ccccc1C(F)(F)F)C(=O)c1cc(-c2cccs2)nn1-c1ccccc1 the Potency was inconclusive [inhibitor, single point].
In the case of CCN(CCNC(=O)C1CCN(S(=O)(=O)c2cccc3cccnc23)CC1)c1ccccc1, the Potency is reported as inconclusive [inhibitor, single point].
In the case of COc1ccc(CNC(=O)CSc2nc(-c3ccc(OC)cc3)cc(C(F)(F)F)n2)cc1, the “activity change, negative = growth inhibition” value is reported as inactive: -16.6%.
With N#Cc1cccc(-c2nc3cnc(N4CCOCC4)nc3n(C[C@H]3CCCO3)c2=O)c1 the “activity change, negative = growth inhibition” value was inactive: 4.79%.
In the case of CCN1CCN(c2cc(N3CCc4ccccc4C3)c(F)cc2[N+](=O)[O-])CC1, the Potency is reported as active: 10.3 µM.
In the case of O=C(CCC(=O)c1cccs1)NCc1ccccc1, the “activity change, negative = growth inhibition” value is reported as inactive: -14.2%.
In the case of CCN(CC(=O)Nc1ccc(NC(C)=O)cc1)C(=O)c1ccc(N(C)S(=O)(=O)c2ccc(C)cc2)cc1, the Potency is reported as inconclusive [inhibitor, single point].
In the case of NCCNc1ccc([N+](=O)[O-])c(Sc2nc3ccccc3[nH]2)c1, the Potency is reported as active: 16.4 µM.
In the case of CC1CCN(S(=O)(=O)c2ccc(NC(=O)CCNC(=O)c3ccc(Cl)cc3)cc2)CC1, the activity change, negative = growth inhibition is reported as inconclusive: -33.1% [inhibitor].
With Cc1ccc(C)c(CSc2ccc3nnc(-c4ccccn4)n3n2)c1 the Potency was inconclusive [inhibitor, single point].
With CCOC(=O)N1CCN(S(=O)(=O)c2cc(C)c(C)cc2C)CC1 the Potency was inconclusive [inhibitor, partial curve, poor fit].
For CO[C@@H]1[C@@H](O[C@@H]2O[C@H](C)[C@@H](O[C@H]3C[C@@](C)(O)[C@@H](OC(=O)CC(C)C)[C@H](C)O3)[C@H](N(C)C)[C@H]2O)[C@@H](CC=O)C[C@@H](C)C(=O)/C=C/C2OC2C[C@@H](C)OC(=O)C[C@H]1OC(C)=O (stereo partly specified), the Potency was active: 3.35 µM.
For Cc1ccc(-c2cc(-c3ccccc3)c(C#N)c(Br)n2)cc1, the Potency was inconclusive [inhibitor, single point].
For CC(=O)Nc1ccc(S(=O)(=O)N2CCC(n3c(C(F)(F)F)nc4cccnc43)CC2)cc1, the Potency was inconclusive [inhibitor, single point].
With CCOC(=O)c1nnn2c3ccccc3c(=O)n(C)c12 the “activity change, negative = growth inhibition” value was inactive: 2.33%.
In the case of CCOc1cccc2sc(N(CCN(C)C)C(=O)/C=C/c3cccs3)nc12, the Potency is reported as active: 23.1 µM.
For CC(=O)N1CCN(C(=O)c2ccc(S(=O)(=O)Nc3ccccc3F)cc2)CC1, the “activity change, negative = growth inhibition” value was inactive: 4.69%.
For COc1cccc(-c2cc(C(=O)Nc3cc(Cl)ccc3O)on2)c1, the “activity change, negative = growth inhibition” value was inactive: -26.3%.
In the case of O=C(CSc1nc(-c2ccco2)cc(C(F)(F)F)n1)NC1CCCCCCC1, the Potency is reported as inconclusive [inhibitor, partial curve].
With CCOC(=O)c1c(C)[nH]c(C)c1C(=O)CSc1nc2ccccc2c(=O)n1-c1ccc(F)cc1 the Potency was inconclusive [inhibitor, single point].
In the case of c1ccc(CSCc2nc3ccccc3[nH]2)cc1, the Potency is reported as inconclusive [inhibitor, partial curve, poor fit].
In the case of Cc1ccccc1C(=O)N(C)Cc1ccccc1, the Potency is reported as inconclusive [inhibitor, full curve].
With Cc1ccc(CS(=O)Cc2ccc(C(=O)NC3CCCCCC3)o2)cc1 (stereo unspecified) the “activity change, negative = growth inhibition” value was inactive: -8.93%.
For CN(CC(=O)Nc1ccccc1Br)C(=O)c1ccccc1OCc1ccc(F)cc1, the Potency was inconclusive [inhibitor, single point].
With CC(C)Cc1cc(CNC(=O)C2CCC(=O)N(CCc3cccc(F)c3)C2)on1 (stereo unspecified) the Potency was inconclusive [inhibitor, partial curve].
For Cc1ccccc1OCc1nc2ccccc2c(=O)n1/N=C/c1ccco1, the Potency was inconclusive [inhibitor, partial curve].
In the case of FC(F)Oc1ccc(-c2c[n+]3c(n2-c2ccccc2)CCCCC3)cc1, the Potency is reported as active: 1.46 µM.
In the case of O=C1c2ccccc2C(=O)N1CCC#Cc1ccc2cc(C3(O)CCCCC3)oc(=O)c2c1, the Potency is reported as inconclusive [inhibitor, partial curve].
For O=C(Nc1nnc(SCC(=O)N2CCCCC2)s1)c1c(F)cccc1F, the “activity change, negative = growth inhibition” value was inactive: -0.901%.
With COc1ccc(C2c3ccsc3CCN2C(=O)C(C)(C)C)cc1 (stereo unspecified) the Potency was inconclusive [inhibitor, single point].
In the case of CC1CCC(NCC(=O)Nc2cccc(S(N)(=O)=O)c2)CC1 (stereo unspecified), the “activity change, negative = growth inhibition” value is reported as inactive: 3.41%.
In the case of COc1ccc(/C=N/NC(=O)c2cccc(OC(F)(F)C(F)F)c2)cc1O, the Potency is reported as inconclusive [inhibitor, single point].
With COc1ccc(N2CCN(C(=O)C3CCN(S(=O)(=O)c4cccs4)CC3)CC2)cc1 the Potency was active: 23.1 µM.
In the case of Cc1ccc(S(=O)(=O)NCCC(=O)NCCc2ccccc2)cc1, the “activity change, negative = growth inhibition” value is reported as inactive: -36.2%.
For COC(=O)c1ccc(/C=C/C(=O)OCC(=O)c2ccc[nH]2)cc1, the “activity change, negative = growth inhibition” value was inactive: -0.564%.
With COc1ccc(N2CCN(C(=O)COC(=O)[C@@H](NC(=O)OCc3ccccc3)C(C)C)CC2)cc1 the Potency was inconclusive [inhibitor, partial curve].
In the case of O=C(COC(=O)Cc1ccc(Cl)cc1)NC1CCCC1, the “activity change, negative = growth inhibition” value is reported as inactive: 4.76%.
With Cn1nc(-c2ccc(NCCO)c([N+](=O)[O-])c2)c2ccccc2c1=O the “activity change, negative = growth inhibition” value was inactive: -1.94%.
In the case of O=C1C(=O)N(CCCO)C(c2ccc(Br)cc2)/C1=C(\O)c1ccc(Br)cc1 (stereo unspecified), the “activity change, negative = growth inhibition” value is reported as inactive: 6.98%.
With COc1ccc(NC(=O)c2nc3ccccc3s2)cc1 the “activity change, negative = growth inhibition” value was inactive: -20.9%.
With CC(=O)c1cccc(OCC(O)CN2CCN(S(=O)(=O)c3c(F)cccc3F)CC2)c1 (stereo unspecified) the Potency was inconclusive [inhibitor, single point].
For O=C1C(=Cc2cccc(Cl)c2)CCc2ccccc21, the Potency was active: 20.6 µM.
For COc1ccc(CN=C2NC(=O)CC(C(=O)Nc3ccccc3C)S2)cc1 (stereo unspecified), the “activity change, negative = growth inhibition” value was inactive: -30.6%.
For COc1ccc(S(=O)(=O)N(C)c2ccc(C(=O)NCc3ccccn3)cc2)cc1, the “activity change, negative = growth inhibition” value was inactive: -29.9%.
In the case of Cc1ccc(CN2CCSc3ccc(C(=O)N4CCN(c5ccccc5)CC4)cc32)cc1, the “activity change, negative = growth inhibition” value is reported as inactive: -24.3%.
For COc1cc(NC(=O)c2ccc(COCC(F)(F)F)cc2)cc(OC)c1OC, the Potency was inconclusive [inhibitor, single point].
In the case of S=C(NNc1cccc(Cl)c1)NC1CCCCC1, the Potency is reported as inconclusive [inhibitor, single point].
With CCOC(=O)c1cc(-c2ccccc2)sc1NC(=O)C(C)C the Potency was inconclusive [inhibitor, single point].
